# Experimental data as given in paper doi:10.1101/2022.11.29.518370 (bioRxiv, 2022).
# B1: CTLA-4 with the last 23 amino acids removed, fused C-terminally to mEGFP or mCherry (dimer control) (receptor)
# chain: not shown
# Target: the molecule itself
# Experiment: FRET or BRET
protein,measurement,value
B1,stoichiometry N,2
